From the supplement of paper PMC8047034
Where a name gives a salt, the structure may show the parent alone. This is one part of the list. Repeats are few or missing, and single values can be far off.

Key:
OVCAR4 = assay: log2 surviving fraction (library drug vs vehicle, or drug + carboplatin vs carboplatin alone; relative to plate median); ovarian cancer lines: OVCAR4 is platinum-sensitive and Ov4Carbo platinum-resistant; higher = more cell survival; conditions: library drug concentration 10 µM, 7 days
Ov4Carbo = assay: as above; conditions: library drug concentration 10 µM, 7 days

Row | Compound | log2 surviving fraction (OVCAR4; carboplatin co-treatment 0 µM) | log2 surviving fraction (OVCAR4; carboplatin co-treatment 5 µM) | log2 surviving fraction (Ov4Carbo; carboplatin co-treatment 0 µM) | log2 surviving fraction (Ov4Carbo; carboplatin co-treatment 5 µM)
1 | Clc1ccc(C(Cn2ccnc2)OCc2ccc(Sc3ccccc3)cc2)c(Cl)c1 (stereo not given) [Fenticonazole nitrate] | -2.75 | -2.7 | -2.53 | -2.47
2 | N#C[C@@H]1C[C@@H]2C[C@@H]2N1C(=O)[C@@H](N)C12CC3CC(CC(O)(C3)C1)C2 | 0.921 | 0.496 | 0.699 | -0.0672
3 | CC(C)(S)[C@@H](N)C(=O)O [Penicillamine (Cuprimine)] | -0.138 | 0.193 | -0.199 | -0.528
4 | O=C(CCCN1CCC(O)(c2ccc(Cl)cc2)CC1)c1ccc(F)cc1 [Haloperidol (Haldol)] | -1.36 | 0.79 | -1.48 | 0.304
5 | Cc1ncc([N+](=O)[O-])n1CC(C)O (stereo not given) [Secnidazole (Flagentyl)] | 0.0639 | -0.189 | -0.376 | 0.25
6 | CCOc1ccccc1OC(c1ccccc1)C1CNCCO1 (stereo not given) [Reboxetine mesylate] | 0.529 | -0.651 | -0.943 | -1.03
7 | OC(CCN1CCCCC1)(c1ccccc1)C1CC2C=CC1C2 (stereo not given) [Biperiden HCl] | -1.26 | -2.46 | -0.494 | -0.48
8 | O=C(O)Cc1ccccc1Nc1c(Cl)cccc1Cl [Diclofenac Diethylamine] | 0.377 | 0.241 | 0.274 | 0.76
9 | COc1cc(C(=O)NS(=O)(=O)c2ccccc2C)ccc1Cc1cn(C)c2ccc(NC(=O)OC3CCCC3)cc12 [Zafirlukast (Accolate)] | 0.875 | 0.506 | 0.224 | 0.338
10 | Nc1ccc(S(=O)(=O)Nc2ccccn2)cc1 [Sulfapyridine (Dagenan)] | 0.63 | -0.149 | 0.152 | -0.171
11 | Oc1ncnc2[nH]ncc12 [Allopurinol (Zyloprim)] | 0.807 | 0.562 | -0.243 | 0.167
12 | CNCC[C@@H](Oc1ccccc1C)c1ccccc1 [Atomoxetine HCl] | 0.555 | -0.134 | -1.85 | -1.56
13 | CC[C@H](C)[C@H](N)C1=N[C@H](C(=O)N[C@@H](CC(C)C)C(=O)N[C@H](CCC(=O)[O-])C(=O)N[C@H](C(=O)N[C@H]2CCCCNC(=O)[C@H](CC(N)=O)NC(=O)[C@@H](CC(=O)[O-])NC(=O)[C@H](Cc3cnc[nH]3)NC(=O)[C@@H](Cc3ccccc3)NC(=O)[C@H]([C@@H](C)CC)NC(=O)[C@@H](CCCN)NC2=O)[C@@H](C)CC)CS1.[Zn+2] [Bacitracin zinc] | 0.676 | -0.935 | -4.04 | 0.724
14 | CCN(CC)C(=S)SSC(=S)N(CC)CC [Disulfiram (Antabuse)] | -9.71 | -7.56 | -7.96 | -7.56
15 | CC(=O)SCC(Cc1ccccc1)C(=O)NCC(=O)OCc1ccccc1 (stereo not given) [Racecadotril (Acetorphan)] | 0.0116 | 0.193 | 0.339 | 0.701
16 | CC(=O)OCC[N+](C)(C)C [Acetylcholine chloride] | 0.0558 | 0.621 | 0.281 | 0.7
17 | CCNC(=O)CCC/C=C\C[C@@H]1[C@@H](/C=C/[C@@H](O)CCc2ccccc2)[C@H](O)C[C@@H]1O [Bimatoprost] | 1.8 | -0.0423 | 0.829 | 2.28
18 | CS(=O)(=O)CCNCc1ccc(-c2ccc3ncnc(Nc4ccc(OCc5cccc(F)c5)c(Cl)c4)c3c2)o1 [Lapatinib] | -0.869 | 1.35 | -1.06 | -6.03
19 | C[C@H](Cn1cnc2c(N)ncnc21)OCP(=O)(O)O [Tenofovir (Viread)] | -0.747 | -0.806 | 0.835 | 0.701
20 | CC1(C)[C@H](C(=O)O)N2C(=O)C[C@H]2S1(=O)=O [Sulbactam sodium (Unasyn)] | 0.00957 | -0.343 | 0.593 | 0.488
21 | CCCCC(=O)O[C@H]1CC[C@H]2[C@@H]3CCc4cc(O)ccc4[C@H]3CC[C@]12C [Estradiol valerate] | -0.194 | 0.36 | -1.18 | -2.07
22 | C[N+]1(C)CCCC(OC(=O)C(O)(c2ccccc2)c2ccccc2)C1 (stereo not given) [Mepenzolate Bromide] | 1 | 0.0772 | 0.369 | 0.935
23 | COc1ccc(OC)c(C(O)C(C)N)c1 (stereo not given) [Methoxamine HCl] | 0.223 | 0.38 | -0.0332 | -0.833
24 | Cc1ncc([N+](=O)[O-])n1CC(O)CCl (stereo not given) [Ornidazole] | -0.355 | 0.0371 | 0.732 | 0.0179
25 | COCCOC(=O)C1=C(C)NC(C)=C(C(=O)OC(C)C)C1c1cccc([N+](=O)[O-])c1 (stereo not given) [Nimodipine (Nimotop)] | -0.487 | 0.504 | 0.0355 | 0.996
